Hit rate of the full screen: of about 310,000 compounds, about 14,000 (4.5%) showed an effect of 50% or more. Effects have a minus sign here. Some of the results follow.
Each compound was assayed against human ether-à-go-go-related gene (hERG) potassium channel (human, UniProt Q12809) (assay: primary screen, population patch clamp on CHO cells stably expressing hERG).
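Note: peak tail current of the secondary pulse compared with the same well before compound.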

Chain of human ether-à-go-go-related gene (hERG) potassium channel (Q12809 whole entry, looked up): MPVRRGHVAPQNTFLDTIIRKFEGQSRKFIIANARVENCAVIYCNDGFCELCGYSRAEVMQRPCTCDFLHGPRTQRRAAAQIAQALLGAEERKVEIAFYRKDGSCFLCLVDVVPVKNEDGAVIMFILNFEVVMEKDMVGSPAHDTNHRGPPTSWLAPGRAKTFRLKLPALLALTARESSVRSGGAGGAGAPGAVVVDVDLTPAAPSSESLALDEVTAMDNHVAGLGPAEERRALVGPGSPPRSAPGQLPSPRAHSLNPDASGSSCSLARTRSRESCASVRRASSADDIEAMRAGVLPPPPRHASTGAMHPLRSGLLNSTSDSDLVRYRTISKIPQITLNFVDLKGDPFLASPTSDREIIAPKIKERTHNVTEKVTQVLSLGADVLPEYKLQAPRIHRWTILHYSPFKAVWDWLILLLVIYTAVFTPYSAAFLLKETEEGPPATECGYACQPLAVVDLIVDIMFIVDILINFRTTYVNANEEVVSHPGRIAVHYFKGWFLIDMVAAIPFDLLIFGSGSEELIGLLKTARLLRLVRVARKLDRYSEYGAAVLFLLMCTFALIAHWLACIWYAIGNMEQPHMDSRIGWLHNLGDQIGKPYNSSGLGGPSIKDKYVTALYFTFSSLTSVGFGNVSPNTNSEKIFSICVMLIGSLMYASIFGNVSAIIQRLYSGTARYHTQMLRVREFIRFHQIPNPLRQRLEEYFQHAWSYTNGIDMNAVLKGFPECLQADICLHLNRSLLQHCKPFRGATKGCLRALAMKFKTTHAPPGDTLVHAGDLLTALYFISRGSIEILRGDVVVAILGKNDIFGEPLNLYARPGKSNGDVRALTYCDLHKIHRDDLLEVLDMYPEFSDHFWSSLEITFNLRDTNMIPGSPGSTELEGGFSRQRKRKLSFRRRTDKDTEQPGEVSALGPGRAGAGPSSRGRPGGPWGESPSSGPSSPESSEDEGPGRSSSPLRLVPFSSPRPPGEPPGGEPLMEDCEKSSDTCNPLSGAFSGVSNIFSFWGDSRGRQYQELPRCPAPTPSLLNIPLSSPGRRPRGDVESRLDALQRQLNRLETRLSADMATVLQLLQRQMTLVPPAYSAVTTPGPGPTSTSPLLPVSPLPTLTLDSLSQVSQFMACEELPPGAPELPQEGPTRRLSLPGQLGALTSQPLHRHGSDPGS

SMILES	hERG current change (%, negative = inhibition) at 10uM
O=C(NC(=S)NCc1ccc2c(c1)OCO2)c1ccccc1	-10.2%
O=[N+]([O-])c1ccc(N/N=C2/CCCCC2c2ccccn2)c([N+](=O)[O-])c1 (centres unmarked)	-56.3%
CCOc1ccc(CCNC(=O)c2cc3c(s2)CS(=O)(=O)C3)cc1OCC	11.6%
Cc1cccc(CC2CC(=O)N(c3ccc(C)cc3Br)C2=O)c1 (centres unmarked)	2.33%
CN(C)c1ccc(CN(CC2CCCO2)C(=O)c2cccs2)cc1 (centres unmarked)	-2.59%
CCOC(=O)c1c(C)n(Cc2ccco2)c2ccc(O)cc12	20.1%
Cc1cc(OCC(=O)OCC(=O)Nc2cc(C(F)(F)F)ccc2N2CCOCC2)ccc1Cl	11.1%
CSCCC(=O)N1C(C)CCCC1C(=O)O (centres unmarked)	12.7%
Cl.OCCN(CC#CC(O)(c1ccccc1)C1CCCCC1)CCO (centres unmarked)	6%
Cc1ccc2nc(SCC(=O)NC3CCCC3)nc(=O)n2c1	-25.1%
COCC1CCCCN1C(=O)c1cc(COc2ccc3ncccc3c2)on1 (centres unmarked)	-47.2%
C[C@@]1([C@@H](NP(=O)(c2ccccc2)c2ccccc2)c2ccccc2)C[C@H]1CCO	11.9%
COc1ccc(NC(=O)CN(C)C(=O)c2ccccc2OCC(=O)Nc2cccc(C(F)(F)F)c2)cc1	-47.4%
O=C(NNc1ccc(-c2csnn2)cc1)c1ccccc1C(F)(F)F	-13.9%
O=C(CNCc1cccc2ccccc12)Nc1ccccc1[N+](=O)[O-]	13.7%
COc1ccc(CNC(=O)c2n[nH]c3ccccc23)cc1OC	11.6%
CCOC(=O)C1=C(C)NC(C)=C(C(=O)OCC)C1c1cc(N)ccc1OC(F)F	-3.26%
COc1ccc(NC(=O)CCCC(=O)OCC(=O)c2cccc(OC)c2)cc1	18.5%
O=C(O)CC(=O)Nc1ccccc1	21.4%
O=C(CSc1nc2ccccc2o1)N/N=C/c1ccccc1	2.74%
CCN(CC)CCCOC(=O)C(OC(C)C)(c1ccccc1)c1ccccc1.Cl	-31.9%
Oc1cc(O)cc(-c2cc3ccc(O)cc3o2)c1	26.1%

SMILES	hERG current change (%, negative = inhibition) at 10uM
COc1ccc(OC)c(-c2csc(NC(=O)c3ccc4c(c3)OCO4)n2)c1	-2.31%
CCN(CC)CCn1c(NCc2nc3ccccc3n2Cc2ccccc2)nc2ccccc21	-2.44%
Cc1nn(CCc2n[nH]c(=S)n2C2CCCCC2)c(C)c1Br	0.0958%
COc1ccc2nc(Nc3ccccc3OC)sc2c1	-4.64%
CC(C)CC(C(=O)O)N1C(=O)C2C3c4ccccc4C(c4ccccc43)[C@@H]2C1=O (some centres unmarked)	16.7%
CNC(=O)NC(=O)Cn1cnc2sc(-c3ccccc3)cc2c1=O	14.2%
O=c1c2cc(F)ccc2[nH]c(=S)n1Cc1ccc(F)cc1	12.6%
CC(=O)Nc1ccc(S(=O)(=O)NNc2cccc(C)c2)cc1	13%
O=C(CC1C=Cc2ccccc2N1C(=O)c1ccccc1)c1ccccc1 (centres unmarked)	-11.5%
COc1ccccc1N(Cc1ccccc1)S(=O)(=O)c1cccc(C(=O)Nc2ccc(C)cn2)c1	5.05%
CCN(CC)S(=O)(=O)c1cccc(N=Nc2c(O)n(CC)c(=S)n(CC)c2=O)c1	-7.87%
CC(=O)NC1=NC(=O)C(C)S1 (centres unmarked)	18.9%
Cc1nc2sc(C(c3cccc(F)c3)N3CCCC(C)C3)c(O)n2n1 (centres unmarked)	-6.93%
Cc1noc(C)c1C(=O)N1CCCC(C(=O)c2ccc(Cl)cc2)C1 (centres unmarked)	-17.2%
CCOc1ccccc1N(CC(=O)Nc1cccnc1)S(C)(=O)=O	13%
Cc1cc(C)cc(OC(=O)CCN2C(=O)c3ccccc3C2=O)c1	-3.19%
Cc1cc(S(=O)(=O)N2CCN(c3ccccn3)CC2)c(C)cc1Cl	-5.71%
O=C(COC(=O)COc1ccccc1F)Nc1ccc2c(c1)OCO2	8.45%
O=C(NCc1ccccc1C(F)(F)F)C1CCC(=O)N(C2CCCCCC2)C1 (centres unmarked)	-6.51%
COc1cc(C2=NOC(C(=O)NCc3cccs3)C2)cc(OC)c1OC (centres unmarked)	9.97%
CCCn1c(SCc2ccc(Cl)cc2)nc2c1c(=O)[nH]c(=O)n2C	0.36%
COc1ccc(S(=O)(=O)N2CCCCC2)cc1NC(=O)C1COc2ccccc2O1 (centres unmarked)	-17.8%

Source: publication PMC4336329 (PLoS ONE, 2015)
